In US11630109B2, “Sensors and assays for ubiquitin or ubiquitin-like proteins” (Colorado State University Research Foundation, priority 2013, dated 2023):

Tested on: conjugated ubiquitin
Assay: Relative fluorescence intensity of Atto532-tISR L1 Cys2 on addition of conjugated ubiquitin
Format: binding
Conditions: same concentrations (0-1000 nM) of conjugated ubiquitin
From the text: In this chimeric polypeptide sensor, the L1 Cys2, the linker between the IsoT^ZnF and the UIM, has a Cys conjugated with the fluorophore. Relative fluorescence intensity of Atto532-tISR L1 Cys2 is shown with different concentrations of free ubiquitin proteins (triangles) or conjugated ubiquitin proteins.
Another chimeric polypeptide sensor, Atto532-tISR L1 Cys2, was constructed. This chimeric polypeptide comprises three binding domains. […] In this chimeric polypeptide sensor, L1 Cys2 is the linker between the IsoT^ZnF and the UIM and has a Cys residue conjugated with the fluorophore. Relative fluorescence intensity of Atto532-tISR L1 Cys2 was measured following the addition of different concentrations of free ubiquitin proteins or conjugated ubiquitin proteins. […] There was little change in fluorescence intensity across the same concentrations of conjugated ubiquitin.

B1: Atto532-tISR L1 Cys2: tISR sensor with three binding domains; Cys in linker between IsoT ZnF and UIM conjugated with Atto532 (conjugate)
chain: MPSSHHHHHHSSGLVPRGSHMKQEVQAWDGEVRQVSKHAFSLKQLDNPARIPPSGWKCSKCDMRENLWLNLTDGSILCGRRYWDGSGGNNHAVEHYRETGYPLAVKLGTITPDGADVWSYDEDDMVLDPSLAEHLSHFGIDMLKMQKGSCAAEEAEEQIAYAMQMSLREAGGGSDLLCKKGCGYYGNPAWQGFCSKCWREEAHKAAQK
change in fluorescence intensity with conjugated ubiquitin: little change
